Test results taken from PMC4336329 (PLoS ONE, 2015).
Screen size: about 310,000 compounds; about 2,200 (0.71%) showed an effect of 50% or more. Effects have a minus sign here. This is one part of the list.

These compounds were tested against human ether-à-go-go-related gene (hERG) potassium channel (human, UniProt Q12809) (assay: primary screen, population patch clamp on CHO cells stably expressing hERG).
Sequence of human ether-à-go-go-related gene (hERG) potassium channel (Q12809 whole entry, looked up): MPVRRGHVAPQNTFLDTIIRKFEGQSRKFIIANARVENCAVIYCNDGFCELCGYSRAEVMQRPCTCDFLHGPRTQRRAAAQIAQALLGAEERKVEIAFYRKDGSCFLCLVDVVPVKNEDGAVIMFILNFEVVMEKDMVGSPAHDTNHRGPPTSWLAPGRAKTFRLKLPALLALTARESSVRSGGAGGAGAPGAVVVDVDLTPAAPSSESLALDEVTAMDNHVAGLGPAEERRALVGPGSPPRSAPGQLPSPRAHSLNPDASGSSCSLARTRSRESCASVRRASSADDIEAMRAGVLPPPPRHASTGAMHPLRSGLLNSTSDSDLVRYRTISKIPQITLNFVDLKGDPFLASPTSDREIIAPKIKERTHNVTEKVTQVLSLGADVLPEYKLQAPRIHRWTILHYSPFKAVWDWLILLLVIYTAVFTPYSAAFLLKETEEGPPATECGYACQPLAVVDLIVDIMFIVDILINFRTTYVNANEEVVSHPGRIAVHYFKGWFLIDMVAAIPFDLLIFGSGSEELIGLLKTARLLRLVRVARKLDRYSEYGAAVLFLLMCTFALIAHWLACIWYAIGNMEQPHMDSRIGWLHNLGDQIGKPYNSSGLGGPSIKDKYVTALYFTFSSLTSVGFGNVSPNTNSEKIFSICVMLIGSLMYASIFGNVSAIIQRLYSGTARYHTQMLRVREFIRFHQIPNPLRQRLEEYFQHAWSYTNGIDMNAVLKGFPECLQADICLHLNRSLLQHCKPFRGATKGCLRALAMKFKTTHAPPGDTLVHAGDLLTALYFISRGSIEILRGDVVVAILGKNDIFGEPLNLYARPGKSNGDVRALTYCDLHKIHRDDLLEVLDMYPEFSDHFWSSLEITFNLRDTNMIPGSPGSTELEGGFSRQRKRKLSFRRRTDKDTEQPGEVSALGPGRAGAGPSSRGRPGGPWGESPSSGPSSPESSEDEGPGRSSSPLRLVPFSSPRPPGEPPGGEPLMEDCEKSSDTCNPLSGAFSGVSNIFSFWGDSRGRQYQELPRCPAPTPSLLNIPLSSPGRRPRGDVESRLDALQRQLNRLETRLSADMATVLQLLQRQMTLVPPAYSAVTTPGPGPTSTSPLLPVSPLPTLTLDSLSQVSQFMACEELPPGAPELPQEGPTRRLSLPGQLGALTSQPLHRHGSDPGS

| Structure (SMILES) | hERG current change (%, negative = inhibition) at 1uM [%] |
| --- | --- |
| CCn1c(COc2ccc(=O)n(-c3ccccc3)n2)nnc1SCc1ccc(C)cc1 | -22.6 |
| O=C(COC(=O)C12CC3CC(CC(O)(C3)C1)C2)Nc1ccc(Br)cc1F | -10.2 |
| COC(=O)[C@@H]1C[C@@]2(O)[C@@H](O)[C@@H](O)[C@@H](O)C[C@H]2N1Cc1ccc(-c2ccccc2)cc1 | 8.7 |
| COc1ccc(C(CNC(=O)CNC(=O)c2ccc(F)cc2)N2CCCC2)cc1 (centres unmarked) | 1.1 |
| N#CC(C#N)=c1ccc2c(c1)NC1(CCCCC1)N=2 | 13 |
| Cc1nn(C)c(C)c1CN(C(=O)C1CCC(=O)N(C2CCCCCC2)C1)C(C)C (centres unmarked) | 12.6 |
| CNS(=O)(=O)c1cccc(C(=O)OC2CCCCC2=O)c1 (centres unmarked) | 16.8 |
| COc1ccc(N(C(=O)c2cccnc2)S(=O)(=O)c2ccccc2)cc1 | 7.43 |
| CCC(O)(CC)C(=O)NN(C(=O)Nc1csc2c1CCCC2)c1ccccc1 | 12.3 |
| COCCCNC(=O)CCn1c(=O)c2ccccc2n(Cc2cccc([N+](=O)[O-])c2)c1=O | -16.5 |
| CCOC(=O)Nc1ccc(NC(=O)c2c(OC)cccc2OC)cc1 | 7.84 |
| OCc1ccc(O)c2ncccc12 | 2.3 |
| C/C(=N/OC(=O)C1CC1c1ccccc1)c1ccccc1 (centres unmarked) | 18.3 |
| COCCCNc1nc2ccccc2nc1NS(=O)(=O)c1ccc(C)cc1 | 5.09 |
| CC(C)N(Cc1nnc(-c2ccc(Cl)cc2)o1)C(=O)c1cc2ccccc2o1 | -0.713 |
| CCc1cc(C(=O)O)c(NC(=O)C(c2ccccc2)c2ccccc2)s1 | 16.6 |
| COC(=O)c1ccc(C2NC(=O)CCC2[N+](=O)[O-])cc1 (centres unmarked) | 13.7 |
| COCCCC1CCN(Cc2nc(Cc3ccccc3Cl)no2)CC1 | 2.53 |
| COc1ccccc1-c1nnc(NC(=O)c2ccc(S(=O)(=O)N3CCCC3)cc2)o1 | -23.2 |
| S=C(NCC1CCCCC1)Nc1ccc(Oc2ccccc2)cc1 | 6.68 |
| O=C(CN1CCN(CC(=O)Nc2ccccc2Cc2ccccc2)CC1)Nc1ccccc1Cl | 17.1 |
| CC(C)NC(=O)c1onc(CSc2ccc(C(C)C)cc2)c1C(=O)O | 13.1 |
| COc1ccc(CCNC(=O)c2cccc3c2C(=O)N(C2CCCCC2)C3)cc1OC | 6.77 |

| Structure (SMILES) | hERG current change (%, negative = inhibition) at 1uM [%] |
| --- | --- |
| Cc1ccnc(NS(=O)(=O)c2ccc(NC(=O)c3ccc4c(c3)OCCO4)cc2)n1 | 16.6 |
| CCOC(=O)N1CCN(C(=O)C(=O)Nc2sc3c(c2C(=O)O)CC(C)(C)OC3)CC1 | 15.3 |
| Cl.NCC(O)c1ccc(O)cc1 (centres unmarked) | 3.92 |
| Cc1ccc(NC(=O)CNc2ccc(OC(C)C)cc2)c(C)c1 | 6.16 |
| NC(=O)CCC1NC(=S)N(Cc2ccccc2)C1=O (centres unmarked) | 10.4 |
| CCOC(=O)c1c(NC(=O)Cn2c(=O)oc3ccccc32)oc(C)c1C(C)=O | 13.3 |
| Cc1cccc(-n2c(C)nc3cc(C(=O)N4CCOCC4)ccc32)c1 | 13.3 |
| O=C1NC(=Nc2ccccc2Cl)S/C1=C\c1cc([N+](=O)[O-])ccc1O | 2.26 |
| COc1ccccc1NC(=O)CN(Cc1ccco1)C(=O)c1cc2ccccc2o1 | 0.0983 |
| Cc1nc2cc(C(=O)O)ccc2n1-c1ccc(F)cc1F | 2.5 |
| CC(=O)Nc1cccc(Oc2ccc(-c3noc(C)n3)cc2)c1 | 6.33 |
| CN(C)CCc1nn[nH]n1 | -3.43 |
| O=S(=O)(c1ccc(Oc2ccc(F)c(Cl)c2)nc1)N1CCOCC1 | 3.7 |
| Cc1cccc(NC(=O)CN2C(=O)NC(C)(c3ccc4c(c3)OCO4)C2=O)c1 (centres unmarked) | -16.4 |
| CN(C(=O)c1nn(C)c2c1CSc1ccccc1-2)c1ccc(F)cc1 | 10.2 |
| Cc1sc(NC(=O)CCC(=O)O)c(C(N)=O)c1-c1ccccc1 | 7.1 |
| Cc1ccc(/C=N/NC(=O)Cc2cccs2)o1 | 9.02 |
| N#CCc1nc(CSc2nc3ccccc3s2)cs1 | 11.8 |
| COc1ccc(NC2=C3CC(C)CC=C3N(c3ccc(OC)cc3)C2=O)cc1 (centres unmarked) | 4.39 |
| CCN(CC)C(=O)CSc1nc2cc(S(=O)(=O)N3CCOCC3)ccc2n1CC | 12.4 |
| N#C/C(=C\c1cccnc1)c1ccc([N+](=O)[O-])cc1 | -9.76 |
| S=C(Nc1cccnc1)Nc1ccccc1Br | -8.83 |
| COc1ccc(/C=C(/NC(C)=O)C(=O)O)cc1 | 13.5 |

| Structure (SMILES) | hERG current change (%, negative = inhibition) at 1uM [%] |
| --- | --- |
| CCOC(=O)N1CCC(NC(=O)CCS(=O)(=O)c2ccc3c(c2)CCN3C(C)=O)CC1 | 6.95 |
| O=C1CCc2cc(S(=O)(=O)NC(Cc3ccccc3)C(=O)N3CCN(c4ccccn4)CC3)ccc2N1 (centres unmarked) | -21.8 |
| Cc1ccc(C(=O)Nc2nnc(COc3ccccc3)s2)cc1 | 6.33 |
| NC(=O)Cn1cc(C(=O)c2cccs2)c2ccccc21 | 6.32 |
| CNc1c(NS(=O)(=O)c2ccc3c(c2)CCCC3)c(=O)oc2ccccc12 | 15.4 |
| O=c1[nH]c(=O)n(CCc2ccccc2)c(O)c1/C=N/N1CCOCC1 | 15.2 |
| O=C(OCc1nc2ccccc2[nH]1)C1CCCCC1 | 5.67 |
| CCOC(=O)C1(Cc2ccccc2C(F)(F)F)CCN(CCCn2cccn2)CC1 | -49.2 |
| CCN1CCN(c2ccc(N=Cc3ccc(O)cc3O)cc2)CC1 | 11.5 |
| COc1ccc(C(C(=O)NC2CCCC2)N(C(=O)c2snc(-c3ccc(F)cc3)c2N)c2ccc(OC)cc2)cc1 (centres unmarked) | -2.68 |
| Cc1ccc2nc(C)cc(C(=O)OCC(=O)Nc3cccnc3Cl)c2c1 | -4.13 |
| CCCCC(=O)Nc1ccc2oc(-c3ccncc3)nc2c1 | 5.73 |
| COc1ccc2c(c1)c(=O)c(C(=O)c1ccc(C)cc1)cn2CC(=O)Nc1ccc(F)cc1 | 6.23 |
| CC(C(=O)c1ccccc1)n1cnc2ccccc2c1=O (centres unmarked) | 9.56 |
| C/C(=N\NC(=O)c1nnn(-c2nonc2N)c1-c1ccc2c(c1)OCO2)c1ccc(C)cc1 | 15.3 |
| O=C(O)c1ccc2c(=O)n3c(nc2c1)/C(=C/c1ccccc1C(F)(F)F)CCCC3 | 7.81 |
| O=C(CN1C(=O)c2ccccc2C1=O)NCCc1c[nH]c2ccc(Cl)cc12 | 0.521 |
| CCNC(=O)c1cnn(-c2ccccc2)c1-c1ccccc1 | 13.5 |
| Cc1ccccc1NC(=O)c1cnn(-c2ccccc2)c1C | 13.5 |
| COc1ccc(S(=O)(=O)N2CCCCC2)cc1N(C)S(=O)(=O)c1ccccc1 | 12.7 |
| COc1ccc(OC)c(CNC(=O)CCn2nc(C)c3c(C)n(-c4ccccc4)nc3c2=O)c1 | 8.53 |
| Nc1ccc2sc(N)nc2c1 | 15.6 |
| Cc1cc(O)c(Sc2ccccc2)c(=O)o1 | 10.8 |

| Structure (SMILES) | hERG current change (%, negative = inhibition) at 1uM [%] |
| --- | --- |
| CCC(C)N1C(=O)S/C(=C/c2ccc(Sc3nc4ccccc4[nH]3)o2)C1=O (centres unmarked) | 15.2 |
| Cc1ccc(CNC(N)=S)cc1 | 12 |
| CCCCCCCCc1nc(=S)[nH][nH]1 | 16 |
| CCC(=O)Nc1sc2c(c1C(N)=O)CCC2 | 17.2 |
| CN(C)S(=O)(=O)c1ccc(Cl)c(C(=O)NC2CCCCCCC2)c1 | 8.77 |
| C/C(=N\NC(=O)c1c(Br)c(C)nn1C)c1cccc(NC(=O)c2ccccc2F)c1 | 7.68 |
| CCCCc1c(O)nc(N2CCN(Cc3ccccc3)CC2)[nH]c1=O | 7.48 |
| O=C1C=C(c2ccc(Cl)cc2)C(=O)N1Nc1ccccc1 | 9.11 |
| O=C(COC(=O)c1ccccc1OCC(=O)Nc1ccc(Br)cc1)Nc1ccccc1 | 11.5 |
| Oc1cccc(/C=N/Nc2cc(N3CCCC3)nc(N3CCCC3)n2)c1 | 8.58 |
| Cc1cc(Br)cc(Cl)c1OCC(=O)N1CCN(C(=O)c2ccco2)CC1 | -30.9 |
| CCOC(=O)c1ccc(NC(=O)CSc2nnc(-c3cccs3)n2C)cc1 | 6.5 |
| O=C(CNC(=O)c1ccc2c(=O)n3c(nc2c1)CCC3)Nc1ccc(F)c(F)c1 | -1.96 |
| O=C(CNCC1CCCO1)N1CCCc2ccccc21.O=C(O)C(=O)O (centres unmarked) | 9.85 |
| CC12COC3(C(=O)Nc4cccnc4)CC1CCC32C (centres unmarked) | 2.96 |
| NC(=O)N/N=C/c1ccc(-c2cccc(C(F)(F)F)c2)o1 | 4.7 |
| Cc1ccc(CSC2=NCCN2C(=O)c2ccc([N+](=O)[O-])cc2)cc1 | -2.5 |
| O=c1ccc(-c2nc3cc(Cl)ccc3n2Cc2ccccc2)c[nH]1 | -45 |
| COc1c(C(=O)N2CCCC2)ccc2ccccc12 | 15.7 |
| CN(C)CCCNCC(=O)Nc1ccccc1N1CCOCC1.O=C(O)C(=O)O | 17.6 |
